Experimental data as given in ChEMBL document CHEMBL1201862, “PubChem BioAssay data set” (2004).
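Five compound concentrations were applied to cells in 96-well plates for 48 hours; endpoints were derived by simple linear interpolation of the resulting dose-response curve. Abbreviation: GI50, concentration required for 50% inhibition of growth.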 Active and inactive are the calls of the source. Rule as the data show it: active = GI50 up to about 1.1 µM and inactive = higher.

test system: NCI-H322M; experiment: NCI anticancer screen, dose series, 48 h

SMILES | GI50
CC(C)(C)c1ccc(CN2CCN(C(c3ccccc3)c3ccc(Cl)cc3)CC2)cc1 (stereo unspecified) | inactive: > 100 µM
Nc1nc(N)c2nc(CNc3ccc(C(=O)O)cc3)[nH]c2n1 | inactive: > 100 µM
CCOC(=O)C(=O)NC12CC3CC(CC(C3)C1)C2 | inactive: > 100 µM
CCCNc1ncnc2[nH]ncc12 | inactive: > 100 µM
Cc1ccc(Nc2nnc(-c3ccc4c(c3)OCO4)o2)c(C)c1 | inactive: > 100 µM
N=c1oc2cc(O)ccc2cc1C(=O)Nc1ccccn1 | inactive: > 100 µM
O=C(O)C/C(=C\c1ccco1)C(=O)O | inactive: > 100 µM
O=C1CCC2(c3ccc(F)cc3)Nc3cc(Cl)ccc3N12 (stereo unspecified) | inactive: > 100 µM
Cc1ccc(S(=O)(=O)Oc2cc(S(=O)(=O)O)cc3cc(S(=O)(=O)O)cc(N)c23)cc1 | inactive: > 100 µM
NCCNCC1CCNCC1 | inactive: > 100 µM
COc1ccc2c(c1)c(Cc1c(C)n(C)c3ccc(OC)cc13)c(C)n2C | inactive: > 100 µM
Oc1c(/N=N\c2ccccc2)c2cccc3ccc4cccc1c4c32 | inactive: > 100 µM
COc1ccc(-c2c3c(nc4nc(SC)nc(SC)c24)CCCC3)cc1OC | inactive: > 100 µM
CC(=O)NC(ON1C(=O)COc2ccccc21)C(Cl)(Cl)Cl (stereo unspecified) | inactive: > 100 µM
Cn1c2ccccc2c2c(-c3ccccc3)cc3c(c21)C(=O)C=CC3=O | inactive: > 10 µM
CC(C)C1(C)N=C(C(F)(F)F)c2cc(C(=O)C(F)(F)F)c3ccccc3c2N1 (stereo unspecified) | inactive: 6.15 µM
CCS(=O)(=O)Nc1ccc(Nc2c3ccccc3nc3ccccc23)c(OC)c1 | inactive: 4.43 µM
CCCCCC(C/C=N/N(C)C)C(O)(C(F)(F)F)C(F)(F)F (stereo unspecified) | inactive: 57.3 µM
CCCNCC(O)CNc1ccc(NCC(O)CNCCC)c2c1C(=O)c1ccccc1C2=O (stereo unspecified) | inactive: 2.64 µM
CC(/C=N/N=C1NCCCN1)=N\N=C1NCCCN1 | inactive: > 100 µM
O=C1C=C(NCCc2ccccc2)c2ccccc2C1=O | inactive: 1.58 µM
Oc1c(C2=NNC(c3cccs3)C2)ccc2ccccc12 (stereo unspecified) | inactive: 26.4 µM
N#Cc1c(-c2ccccc2)c(C#N)c(=S)n(C2OCC(O)C(O)C2O)c1N (stereo unspecified) | inactive: > 100 µM

SMILES | GI50
CC(=O)c1c(O)cc(O)c(-c2c(C)cc(O)c3c2C(=O)c2cccc(O)c2C3=O)c1O | inactive: 14.3 µM
COc1cc2c(c(OC)c1OC)-c1ccc(SC)c(=O)cc1C(CO)C2 (stereo unspecified) | active: 0.279 µM
Nc1ccccc1/C=C\c1ccccc1 | inactive: > 100 µM
C[S+]=c1sc2ccccc2s1 | inactive: > 100 µM
COc1ccc(C(=C2C=CC=C2)c2ccc(OC)cc2)cc1 | inactive: 51.9 µM
CN1C2CCC1C(C(O)c1ccccc1[N+](=O)[O-])C(=O)C2 (stereo unspecified) | inactive: 44.6 µM
CC(=O)n1nc(-c2nc3ccccc3nc2Cl)cc1Cl | inactive: 28.5 µM
CN(C)C(=N)c1ccccc1 | inactive: > 100 µM
NCCCNCc1c2ccccc2c(CNCCCN)c2ccccc12 | inactive: 25.1 µM
CC(=O)C1(O)CCC2(O)C3(O)CC=C4CC(O)CCC4(C)C3CC(OC(=O)c3ccc(O)cc3)C12C.COC1CC(OC2C(C)OC(OC3C(C)OC(OC4CCC5(C)C(=CCC6(O)C5CC(OC(=O)c5ccc(O)cc5)C5(C)C(O)(C(C)=O)CCC65O)C4)CC3OC)CC2OC)OC(C)C1O (stereo unspecified) | inactive: 35.8 µM
O=C1NC2c3c(I)sc(I)c3C(O)C2O1 (stereo unspecified) | inactive: > 100 µM
COC(=O)C1CC2C=CC=CC(=O)C2(C)C1 (stereo unspecified) | inactive: 46.8 µM
N#Cc1nc(Nc2cccc3ccccc23)sc1N | inactive: 56.1 µM
CCn1c2ccccc2c2ccc(C3C4C(=O)N(c5cccc6ccccc56)C(=O)C4ON3C(C(N)=O)c3ccccc3)cc21 (stereo unspecified) | inactive: 23.1 µM
O=c1oc2ccc3ccccc3c2cc1-c1nc2ccc([N+](=O)[O-])cc2o1 | inactive: 47.4 µM
CC(=O)OCC1OC(OCCCOP(=O)(OCCC#N)OCC2OC(n3cnc4c(N)ncnc43)C(OC(=O)c3ccccc3)C2OC(=O)c2ccccc2)C(OC(C)=O)C(OC(C)=O)C1OC(C)=O (stereo unspecified) | inactive: > 100 µM
CCN1C/C(=C\c2ccc(Cl)cc2)c2[nH]c(=O)c(C#N)c(-c3ccc(Cl)cc3)c2C1 | inactive: > 100 µM
COC(=O)C1=C(CCC[C@H](C)O[Si](C)(C)C(C)(C)C)NC(=O)N2[C@@H](CCO)CC[C@H]12 | inactive: 17.3 µM
COP(C)(=O)C(Cc1c[nH]c2ccccc12)NC(=O)OCc1ccccc1 (stereo unspecified) | inactive: > 100 µM
COc1cc2c(c3oc4c(O)cccc4c(=O)c13)CC(C(C)(O)CCl)O2 (stereo unspecified) | inactive: 4.56 µM
COc1cccc2c(Nc3ccc(S(=O)(=O)NC(C)=O)cc3)c3ccc([N+](=O)[O-])cc3nc12 | inactive: 39.8 µM
O=C(O)CNS(=O)(=O)c1ccc(NC(=O)c2cccc([N+](=O)[O-])c2)cc1 | inactive: > 100 µM
COC(=O)c1ccc(COC(=O)N2C=CCC2C(=O)O)cc1 (stereo unspecified) | inactive: > 100 µM

SMILES | GI50
NCCC(=O)N[C@@H](Cc1cc(O)c(O)c(SCC(NC(=O)CC[C@H](N)C(=O)O)C(=O)NCC(=O)O)c1)C(=O)O (stereo partly specified) | inactive: > 50 µM
CC(/C=N/N(C)C1=NCCCCN1)=N/N(C)C1=NCCCCN1 | inactive: > 100 µM
CCCC(=O)Nc1cc(C(=O)N2C[C@@H]3C[C@]34C2=CC(=O)c2[nH]cc(C)c24)n(COC)c1 | inactive: 8.75 µM
COc1cc(-c2nccc3cc(OC)c(OC)cc23)ccc1O | inactive: 49.1 µM
COC(=O)/C=C(\C)C(=O)N(C)c1ccccc1I | inactive: > 100 µM
COc1ccc(/N=c2\ssc(C(=S)Nc3ccc(OC)cc3)c2S)cc1 | inactive: > 100 µM
COc1ccc(-c2cc(O)c3nc4ccccc4n3c2)cc1 | inactive: > 100 µM
CC1(C)C(O)c2ccccc2OC1N1CCN(C2Oc3ccccc3C(O)C2(C)C)CC1 (stereo unspecified) | inactive: > 100 µM
COc1ccc(Cc2coc3ccccc3c2=O)cc1OC | inactive: > 100 µM
CCOC(=O)CC(=O)Sc1ccccc1 | inactive: 25.5 µM
Nn1c(SCC(=O)O)nc2ccccc2c1=O | inactive: > 100 µM
C=C1C(=O)OC2(C)C3CCC(C3)C12 (stereo unspecified) | inactive: 75.3 µM
c1ccc(/C(=N/Nc2ccccn2)c2cccnn2)cc1 | inactive: 3.72 µM
O=S(=O)(O)c1cc(/N=N/c2c(O)ccc3ccccc23)ccc1/C=C/c1ccc(/N=N/c2c(O)ccc3ccccc23)cc1S(=O)(=O)O | inactive: > 100 µM
COC(=O)C(Cc1ccc2c(c1)CCC2)Cc1ccc2c(c1)CCC2 | inactive: > 100 µM
C[C@]12CC[C@H](O)CC1=CC[C@@H]1C2CC[C@]2(C)NC(=O)C(C#N)CC12 (stereo partly specified) | inactive: 47.2 µM
CN(/N=C/c1ccccc1O)c1ccc2ccccc2n1 | inactive: 20.7 µM
CCCCCOc1ccc(/C=N\c2ccc(-c3ccc(/N=C\c4ccc(OCCCCC)cc4)c(OC)c3)cc2OC)cc1 | inactive: > 100 µM
COc1ccc(C[P+]2(c3ccccc3)CCCCC2)cc1.O=[N+]([O-])c1ccc(C[P+]2(c3ccccc3)CCCCC2)cc1.[O-][Cl+3]([O-])([O-])[O-].[O-][Cl+3]([O-])([O-])[O-] | inactive: > 100 µM
O=C(O)c1c2c(c(C(=O)O)c3ccccc13)-c1ccccc1-2 | inactive: 35.1 µM
CN(C)c1ccc(-c2nc(-c3cc4c(ccc5ccccc54)oc3=O)cs2)cc1 | inactive: > 100 µM
CC(C)CCn1c(=O)c2c(=O)[nH][nH]c2c2ccccc21 | inactive: > 100 µM
COc1ccc(-c2nc(-c3ccc(OC)cc3)n(-c3ccccc3)n2)cc1 | inactive: 85.9 µM

SMILES | GI50
COc1ccc(S(=O)(=O)N/N=C/c2cc(I)cc([N+](=O)[O-])c2O)cc1OC | inactive: 52.1 µM
O=C(OC(=O)n1ccc2ccccc21)n1ccc2ccccc21 | inactive: > 100 µM
CO/C=C(/C(=O)OC)c1ccccc1COc1cccc(C(F)(F)F)c1 | inactive: 5.87 µM
COc1c(C(=O)/C(=N/Nc2ccc(C(=O)O)cc2)C(C)=O)c(O)cc2occc12 | inactive: > 100 µM
Oc1ccccc1/C=N/Nc1nnc2c3ccccc3c3ccccc3c2n1 | inactive: > 100 µM
Cc1c2c(n(CCc3ccc(Cl)cc3)c1C)NC(c1ccccc1)C(C#N)S2(=O)=O (stereo unspecified) | inactive: > 93.5 µM
CCC1OC2(C)CC(C#N)(C#N)C1(C#N)C(=N)O2 (stereo unspecified) | inactive: > 100 µM
O=C(CSc1nc2ccc(I)cc2c(=O)n1Cc1ccccc1)N/N=C/c1ccccc1 | inactive: 23.6 µM
CCC(C)C(C(=O)N/N=C1/SCC(=O)N1c1ccccc1)C(=O)N/N=C1/SCC(=O)N1c1ccccc1 (stereo unspecified) | inactive: 97.5 µM
CO[C@@H]1C[C@H](OC(N)=O)[C@@H]2C=C[C@@H]3/C=C(C)/C=C/[C@@H](C)[C@H]([C@H](C)[C@H](O)[C@@H](C)NC(C)=O)OC(=O)/C=C/C=C(C)\C=C\[C@]3(C)[C@@H]2C1 | active: < 0.01 µM
O=c1ccn(C2OC(CO)C(O)C2F)c(=O)n1Cc1ccccc1 (stereo unspecified) | inactive: > 100 µM
N#Cc1ccc(Sc2ccccc2)cc1C#N | inactive: > 100 µM
COc1ccccc1-c1cc(=O)c2cc(C)c(C)c(C(=O)O)c2o1 | inactive: > 100 µM
COC1=CC(=O)C(C2(OC(C)C)OC(=O)C(Cl)=C2Cl)=CC1=O (stereo unspecified) | inactive: > 100 µM
O=C1NC(c2cccc3ccccc23)Nc2ccc(O)cc21 (stereo unspecified) | inactive: 67.6 µM
Cc1ccc(NCc2nnc3c(-c4ccccc4)nc4ccccc4n23)cc1 | inactive: 25 µM
COc1ccc(C(C)NNC(=O)c2cc[n+]([BH2-]C#N)cc2)c(OC)c1 (stereo unspecified) | inactive: > 100 µM
C=C(C)C1CC[C@]2(C(=O)O)CCC3(C)[C@H](CCC4[C@@]5(C)CC[C@H](OC6OC(CO)C(O)C6OC6OC(C)C(O)C(O)C6O)[C@@](C)(CO)C5CC[C@]43C)C12 (stereo partly specified) | inactive: > 100 µM
COc1cc(C2c3cc4c(cc3[C@@H](NCCN3CCOCC3)C3COC(=O)[C@H]23)OCO4)cc(OC)c1O (stereo partly specified) | inactive: 10.6 µM
C=C1C(=O)c2cc3c(cc2C(c2cc(OC)c(OC)c(OC)c2)[C@@H]1C(=O)O)OCO3 (stereo partly specified) | inactive: 32.4 µM
N#Cc1cc(N(CCCl)CCCl)c([N+](=O)[O-])cc1[N+](=O)[O-] | inactive: > 100 µM
COC1=CC(=O)c2c(c(-c3nc(C)cs3)cn2C)C1=O | inactive: 4.51 µM
